Experimental data taken from PubChem BioAssay AID1461 (National Center for Advancing Translational Sciences (NCATS), 2008).
The whole screen tested about 220,000 compounds, of which about 2,300 (1%) were called active. The inconclusive results got no clear call from the source; some entries with a clear call stand among them for comparison. The call rests on the fitted dose curve; in most records, active means well fitted inhibition curve with a large enough effect; inconclusive means small, poorly fitted or top-dose-only effect, or effect the other way; inactive means no such curve, though single readings can be large or run the other way. No potency is given beside an inconclusive call; the fits are too rough.

The compounds below were run against Neuropeptide S receptor (Homo sapiens) (UniProt Q6W5P4) (assay: qHTS Assay for Antagonists of the Neuropeptide S Receptor: cAMP Signal Transduction). Details: CHO-NPSR cells, cAMP TR-FRET, antagonist mode; series mostly up to 38.3 µM.
Sequence of UniProt Q6W5P4 (Q6W5P4 whole entry, looked up): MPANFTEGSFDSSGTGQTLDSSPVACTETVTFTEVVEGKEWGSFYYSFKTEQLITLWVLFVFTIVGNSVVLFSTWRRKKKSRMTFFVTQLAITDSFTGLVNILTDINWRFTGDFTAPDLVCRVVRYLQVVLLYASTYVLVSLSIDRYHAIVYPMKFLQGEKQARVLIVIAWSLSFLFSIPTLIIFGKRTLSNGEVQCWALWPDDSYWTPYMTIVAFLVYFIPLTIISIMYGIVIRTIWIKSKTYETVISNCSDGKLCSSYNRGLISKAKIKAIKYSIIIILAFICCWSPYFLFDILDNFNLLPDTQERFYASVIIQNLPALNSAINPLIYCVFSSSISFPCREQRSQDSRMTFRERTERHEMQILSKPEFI
Further: nearly all actives have a fitted effect of over 50% in size.
Potency means the concentration at half of the fitted maximal effect; tags describe the fitted curve by direction and shape.

| Compound | Potency |
| --- | --- |
| CC1=NN(c2ccc(C)c(C)c2)C(=O)/C1=C\C=C\c1ccc([N+](=O)[O-])o1 | inconclusive [inhibitor, single point] |
| CCCCc1cc(O)c(CCCC)c(O)c1 | inconclusive [inhibitor, single point] |
| COc1ccccc1NC(=O)CN(c1ccc([N+](=O)[O-])cc1)S(=O)(=O)c1ccccc1 | inactive |
| CCc1nc(SCC(=O)N2CCCc3ccccc32)c2oc3ccccc3c2n1 | inconclusive [inhibitor, single point] |
| CCCCC(c1nnnn1C1CCCC1)N1CCN(C2CCCC2)CC1 (centres undefined) | inconclusive [inhibitor, full curve, poor fit] |
| O=S(=O)(NCCc1ccccc1)c1cccc2cccnc12 | inactive |
| CC(C)C(CCNC(=O)CN1C(=O)c2ccccc2C1=O)c1ccco1 (centres undefined) | inconclusive [inhibitor, partial curve, poor fit] |
| COc1cc(/C=C(/NC(=O)c2ccccc2)C(=O)Nc2ccccc2)c([N+](=O)[O-])cc1OC | inconclusive [inhibitor, single point] |
| CCC(=O)Nc1ccccc1C(=O)OCc1ccc(C(=O)c2ccccc2)cc1 | inconclusive [inhibitor, partial curve, poor fit] |
| Cc1ccc(-c2nnc(N3CCN(C(=O)COc4cccc(C)c4)CC3)c3ccccc23)cc1 | inconclusive [inhibitor, single point] |
| Cc1csc(NC(=O)CNS(=O)(=O)c2cccs2)n1 | inconclusive [inhibitor, single point] |
| O=C(CSc1nnc(-c2ccncc2)n1CC1CCCO1)Nc1cccc(O)c1 (centres undefined) | inactive |
| CCc1ccc2[nH]c(=O)c(CN(Cc3ccccc3OC)C(=O)Nc3ccccc3OC)cc2c1 | inconclusive [inhibitor, single point] |
| CN(C)CCN(Cc1ccccc1)c1ccccn1 | inactive |
| Cc1cc(-c2cccnc2)c(C#N)c(SCc2cccc(F)c2)n1 | inconclusive [inhibitor, single point] |
| O=C(NCc1ccco1)c1cccc(S(=O)(=O)N2CCCCC2)c1 | inactive |
| O=C(O/N=C1\CCCCC1c1ccc([N+](=O)[O-])cc1[N+](=O)[O-])c1c(F)cccc1F (centres undefined) | inconclusive [inhibitor, partial curve] |
| COC(=O)NC1CSCC1OC(=O)c1ccc(Br)cc1 (centres undefined) | inconclusive [activator, single point] |
| CN1CCN(Cc2cc(COCc3ccccc3)c3cccnc3c2O)CC1 | inconclusive [inhibitor, full curve, poor fit] |
| Cc1cc(C)c(C(=O)c2ccc(C(=O)N(C(C)C)C(C)C)cc2)c(C)c1 | inconclusive [inhibitor, partial curve] |
| Cc1cc(NCc2ccccc2)nc(-c2ccccc2O)n1 | inconclusive [inhibitor, single point] |
| Cc1cc2cc(CNS(=O)(=O)c3ccc4ccccc4c3)ccc2n1C | inconclusive [inhibitor, partial curve] |
| COC(=O)c1cnc2c(C(F)(F)F)cccc2c1OC | inactive |

| Compound | Potency |
| --- | --- |
| Cc1nc(C/C(=N\Nc2ccccc2)c2ccc(O)cc2O)cs1 | inactive |
| CCOC(=O)C1=C(C)N(C)C(C)=C(C(=O)OCC)C1c1cccnc1 | inconclusive [inhibitor, single point] |
| O=C1CCN(S(=O)(=O)c2ccccc2)CCN1CCOCc1ccc(Cl)cc1 | inactive |
| CCN=c1scc(-c2ccco2)n1/N=C/c1ccc(OC)c(O)c1 | inactive |
| COc1ccccc1/C=C/C=N/NC(=O)c1cc(-c2ccco2)[nH]n1 | inactive |
| CCOC(=O)N1CCN(C(=O)c2ccc(CNS(=O)(=O)c3ccc(C)cc3)cc2)CC1 | inconclusive [inhibitor, partial curve] |
| CCC(=O)N1CCN(c2nc(-c3ccccc3)c3c(c2C#N)CCCC3)CC1 | inconclusive [inhibitor, single point] |
| Cc1ccc(Nc2c(-c3ccccn3)nc3cc(C)ccn23)cc1 | inconclusive [inhibitor, single point] |
| CCN1CCN(Cc2c(O)ccc3c2O/C(=C\c2ccc(C)cc2)C3=O)CC1 | active: 10 µM |
| COc1ccc(NC(=S)NC(NC(=O)c2ccc(Cl)cc2Cl)C(Cl)(Cl)Cl)c([N+](=O)[O-])c1 (centres undefined) | inconclusive [inhibitor, single point] |
| COc1ccccc1OCC(=O)Nc1oc(-c2ccccc2)c(-c2ccccc2)c1C#N | inactive |
| CC(OC(=O)CNC(=O)c1ccccc1F)C(=O)Nc1nc(-c2ccccc2)cs1 (centres undefined) | inactive |
| CC(C)(C)NC(=O)NC(=O)COc1ccccc1C#N | inconclusive [activator, full curve, poor fit] |
| C#CCn1c(=NC(=O)c2ccc(Br)s2)sc2cccc(OC)c21 | inconclusive [inhibitor, single point] |
| Cc1cccnc1Sc1c([N+](=O)[O-])ncn1C | inactive |
| CC(=O)c1ccc(N2CCN(C(=O)c3nn(Cc4ccccc4)c(=O)c4ccccc34)CC2)cc1 | inactive |
| Cc1cc(S(=O)(=O)NCC(c2ccccc2)c2ccccc2)ccc1-n1cnnn1 | inconclusive [inhibitor, single point] |
| O=[N+]([O-])/C=C/c1cn(Cc2ccc(F)cc2)c2ccccc12 | inconclusive [inhibitor, single point] |
| O=C(NCc1ccc(Cl)s1)c1cc(COc2c(F)cccc2F)on1 | inconclusive [activator, single point] |
| O=C(C1=C[C@H](c2csc3ccccc23)C[C@H](OCc2ccc(CO)cc2)O1)N1CCN(Cc2ccc3c(c2)OCO3)CC1 | inconclusive [activator, full curve] |
| Cc1cccc(C2c3[nH]c4ccccc4c3CCN2C(=O)c2cc(CC(C)C)nc(C)n2)n1 (centres undefined) | inconclusive [activator, single point] |
| CC(C)C[C@H](NC(=O)c1[nH]cnc1C(=O)N[C@@H](Cc1ccccc1)C(=O)OC(C)(C)C)C(=O)OC(C)(C)C | inconclusive [inhibitor, single point] |
| CC(C)c1ccccc1-n1c(SCc2cc(=O)oc3ccc4ccccc4c23)nnc1-c1cccnc1 | active: 10 µM |

| Compound | Potency |
| --- | --- |
| CCc1cc2ccc(OC)cc2nc1SCC(=O)Nc1cc(C)on1 | active: 10 µM |
| COc1ccc(CCc2nnc(CCC(=O)NCc3cnc4ccccn34)o2)cc1 | inactive |
| CC(C)CCNC(=O)CN(CCN1CCOCC1)C(=O)Cn1nnc(-c2ccc(F)cc2)n1 | inconclusive [inhibitor, partial curve, poor fit] |
| COC(=O)C1=C(C(=O)OC)N2C=CC=CC2(C)C(C(=O)OC)=C1C(=O)OC (centres undefined) | inactive |
| Cc1ccc(NC(=O)c2noc3c2CCCCC3)cc1 | inconclusive [inhibitor, full curve, poor fit] |
| CCOc1ccc2[nH]c(=O)c(CN(Cc3ccco3)Cc3nnnn3Cc3ccccc3)cc2c1 | inactive |
| O=C1c2ccccc2C(Nc2ccc(F)c(Cl)c2)N1Cc1ccco1 (centres undefined) | inconclusive [inhibitor, single point] |
| Cc1cccc2cc(CN(CC3CCCO3)C(c3nnnn3Cc3ccco3)C(C)C)c(=O)[nH]c12 (centres undefined) | inconclusive [inhibitor, full curve, poor fit] |
| CSc1cccc(NC(=S)N(CCCN2CCCC2)Cc2cccs2)c1 | inactive |
| COc1ccc2cc(CN(CCCN3CCOCC3)Cc3nnnn3C3CCCC3)c(=O)[nH]c2c1 | inconclusive [inhibitor, partial curve] |
| O=C1c2cccc3cccc(c23)C(=O)N1Cc1ccccc1 | inconclusive [activator, partial curve] |
| CC(C)c1ccc(OCc2ccc(C(=O)N3CCN(c4ccccn4)CC3)cc2)cc1 | inconclusive [inhibitor, single point] |
| C=CCn1c(SCC(=O)Nc2cc3oc4ccccc4c3cc2OC)nnc1-c1cnccn1 | inconclusive [inhibitor, single point] |
| Cn1c(CCNC(=O)C2CCCCC2)nc2cc(NC(=O)c3cccs3)ccc21 | inactive |
| C=CCNC(=S)N/N=C(\C)c1cccc(OC)c1 | inconclusive [inhibitor, single point] |
| CC(=O)N1CC(=O)N=C1SCC(=O)Nc1nc(-c2ccccc2)c(-c2ccccc2)s1 | active: 10 µM |
| CC(C)c1ccccc1NC(=O)CNCCc1ccc(C(F)(F)F)cc1 | inconclusive [inhibitor, single point] |
| CC(=O)Nc1ccc(NC(=O)/C(Cl)=C/c2ccccc2)cc1 | inconclusive [inhibitor, single point] |
| Nc1ccc(-c2n[nH]c(=O)c3ccccc23)cc1N | inactive |
| O=C(/C=C/c1ccc(Cl)c([N+](=O)[O-])c1)c1ccc(O)cc1 | inconclusive [activator, single point] |
| CCC(Sc1ncnc2c1nnn2-c1ccc(F)cc1)C(=O)OC (centres undefined) | inconclusive [inhibitor, single point] |
| Cc1ccc(C)c(OCc2nnc(N)s2)c1 | inactive |
| CCO[C@@H]1OC(C(=O)NCc2nc3ccccc3[nH]2)=C[C@H](c2ccc(C(F)(F)F)cc2)[C@H]1CCCO | inconclusive [activator, full curve] |
